# Measured values reported in article PMC9911399, “Two distinct binding modes provide the RNA-binding protein RbFox with extraordinary sequence specificity”.
# Changes are numbered by the printed parent chain; changes in the protein carry UniProt numbers. The list shows a part of the results.
# T1: RBFOX1 RRM RbFoxmut (Fox-RRM*) (Homo sapiens, UniProt Q9NWB1 109-208, R118D;E147R;N151S;E152T)
# T1 sequence: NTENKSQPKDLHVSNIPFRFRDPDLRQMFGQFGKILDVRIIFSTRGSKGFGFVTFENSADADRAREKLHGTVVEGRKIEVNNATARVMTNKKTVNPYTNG
# B1: CGGGCCG (DNA:RNA)
# RNA: GGGAGACCGGAAUUCAGAUUGUCCCGGGCCGUUAAAUCCCGUCGUAGCCACCA
# DNA 1: CAATCTGAATTCCGGTCTCCC
# DNA 2: TGGTGGCTACGACGGGATT
# B2: AGGGGGG (DNA:RNA)
# RNA: B1 RNA with C25A, C29G, C30G
# DNA 1: CAATCTGAATTCCGGTCTCCC
# DNA 2: TGGTGGCTACGACGGGATT
# B3: CUCCCUG (DNA:RNA)
# RNA: B1 RNA with G26U, G27C, G28C, C30U
# DNA 1: CAATCTGAATTCCGGTCTCCC
# DNA 2: TGGTGGCTACGACGGGATT
# B4: CACUGAG (DNA:RNA)
# RNA: B1 RNA with G26A, G27C, G28U, C29G, C30A
# DNA 1: CAATCTGAATTCCGGTCTCCC
# DNA 2: TGGTGGCTACGACGGGATT
# B5: ACCGGUG (DNA:RNA)
# RNA: B1 RNA with C25A, G26C, G27C, C29G, C30U
# DNA 1: CAATCTGAATTCCGGTCTCCC
# DNA 2: TGGTGGCTACGACGGGATT
# B6: AUAUAGA (DNA:RNA)
# RNA: GGGAGACCGGAAUUCAGAUUGUCCAUAUAGAUUAAAUCCCGUCGUAGCCACCA
# DNA 1: CAATCTGAATTCCGGTCTCCC
# DNA 2: TGGTGGCTACGACGGGATT
# B7: GCACAAG (DNA:RNA)
# RNA: B6 RNA with A25G, U26C, U28C, G30A, A31G
# DNA 1: CAATCTGAATTCCGGTCTCCC
# DNA 2: TGGTGGCTACGACGGGATT
# B8: UUUCUAA (DNA:RNA)
# RNA: B6 RNA with A25U, A27U, U28C, A29U, G30A
# DNA 1: CAATCTGAATTCCGGTCTCCC
# DNA 2: TGGTGGCTACGACGGGATT
# B9: AGUGUAG (DNA:RNA)
# RNA: B1 RNA with C25A, G27U, C29U, C30A
# DNA 1: CAATCTGAATTCCGGTCTCCC
# DNA 2: TGGTGGCTACGACGGGATT
# B10: CUAGCGA (DNA:RNA)
# RNA: B6 RNA with A25C, U28G, A29C
# DNA 1: CAATCTGAATTCCGGTCTCCC
# DNA 2: TGGTGGCTACGACGGGATT
# B11: GUGUACC (DNA:RNA)
# RNA: B6 RNA with A25G, A27G, G30C, A31C
# DNA 1: CAATCTGAATTCCGGTCTCCC
# DNA 2: TGGTGGCTACGACGGGATT
# B12: GCGCCCG (DNA:RNA)
# RNA: B1 RNA with C25G, G26C, G28C
# DNA 1: CAATCTGAATTCCGGTCTCCC
# DNA 2: TGGTGGCTACGACGGGATT
# B13: UACCAGG (DNA:RNA)
# RNA: B6 RNA with A25U, U26A, A27C, U28C, A31G
# DNA 1: CAATCTGAATTCCGGTCTCCC
# DNA 2: TGGTGGCTACGACGGGATT
# B14: AAGUGAU (DNA:RNA)
# RNA: B6 RNA with U26A, A27G, A29G, G30A, A31U
# DNA 1: CAATCTGAATTCCGGTCTCCC
# DNA 2: TGGTGGCTACGACGGGATT
# B15: GCAAUGU (DNA:RNA)
# RNA: B6 RNA with A25G, U26C, U28A, A29U, A31U
# DNA 1: CAATCTGAATTCCGGTCTCCC
# DNA 2: TGGTGGCTACGACGGGATT
# B16: GACUCAA (DNA:RNA)
# RNA: B6 RNA with A25G, U26A, A27C, A29C, G30A
# DNA 1: CAATCTGAATTCCGGTCTCCC
# DNA 2: TGGTGGCTACGACGGGATT
# B17: GACAAUA (DNA:RNA)
# RNA: B6 RNA with A25G, U26A, A27C, U28A, G30U
# DNA 1: CAATCTGAATTCCGGTCTCCC
# DNA 2: TGGTGGCTACGACGGGATT
# B18: GUAAUUC (DNA:RNA)
# RNA: B6 RNA with A25G, U28A, A29U, G30U, A31C
# DNA 1: CAATCTGAATTCCGGTCTCCC
# DNA 2: TGGTGGCTACGACGGGATT
# B19: CGUUCUU (DNA:RNA)
# RNA: B1 RNA with G27U, G28U, C30U, G31U
# DNA 1: CAATCTGAATTCCGGTCTCCC
# DNA 2: TGGTGGCTACGACGGGATT
# B20: AUUUUGG (DNA:RNA)
# RNA: B6 RNA with A27U, A29U, A31G
# DNA 1: CAATCTGAATTCCGGTCTCCC
# DNA 2: TGGTGGCTACGACGGGATT
# B21: GCUCGUG (DNA:RNA)
# RNA: B1 RNA with C25G, G26C, G27U, G28C, C29G, C30U
# DNA 1: CAATCTGAATTCCGGTCTCCC
# DNA 2: TGGTGGCTACGACGGGATT
# B22: GCUCUGA (DNA:RNA)
# RNA: B6 RNA with A25G, U26C, A27U, U28C, A29U
# DNA 1: CAATCTGAATTCCGGTCTCCC
# DNA 2: TGGTGGCTACGACGGGATT
# B23: GGAGCCU (DNA:RNA)
# RNA: B1 RNA with C25G, G27A, G31U
# DNA 1: CAATCTGAATTCCGGTCTCCC
# DNA 2: TGGTGGCTACGACGGGATT
# B24: GAUCAAG (DNA:RNA)
# RNA: B6 RNA with A25G, U26A, A27U, U28C, G30A, A31G
# DNA 1: CAATCTGAATTCCGGTCTCCC
# DNA 2: TGGTGGCTACGACGGGATT
# B25: UAGCGUU (DNA:RNA)
# RNA: B1 RNA with C25U, G26A, G28C, C29G, C30U, G31U
# DNA 1: CAATCTGAATTCCGGTCTCCC
# DNA 2: TGGTGGCTACGACGGGATT
# B26: ACACAGC (DNA:RNA)
# RNA: B6 RNA with U26C, U28C, A31C
# DNA 1: CAATCTGAATTCCGGTCTCCC
# DNA 2: TGGTGGCTACGACGGGATT
# B27: AUCCCCA (DNA:RNA)
# RNA: B6 RNA with A27C, U28C, A29C, G30C
# DNA 1: CAATCTGAATTCCGGTCTCCC
# DNA 2: TGGTGGCTACGACGGGATT
# B28: UGAGCGU (DNA:RNA)
# RNA: B1 RNA with C25U, G27A, C30G, G31U
# DNA 1: CAATCTGAATTCCGGTCTCCC
# DNA 2: TGGTGGCTACGACGGGATT
# B29: CGUAAUG (DNA:RNA)
# RNA: B1 RNA with G27U, G28A, C29A, C30U
# DNA 1: CAATCTGAATTCCGGTCTCCC
# DNA 2: TGGTGGCTACGACGGGATT
# B30: UAUGUCU (DNA:RNA)
# RNA: B1 RNA with C25U, G26A, G27U, C29U, G31U
# DNA 1: CAATCTGAATTCCGGTCTCCC
# DNA 2: TGGTGGCTACGACGGGATT
# B31: GGUUCGU (DNA:RNA)
# RNA: B6 RNA with A25G, U26G, A27U, A29C, A31U
# DNA 1: CAATCTGAATTCCGGTCTCCC
# DNA 2: TGGTGGCTACGACGGGATT
# Biological target: T1, RBFOX1 RRM RbFoxmut (Fox-RRM*)
# Assay: EMSA; HiTS-Eq, 1 nM pool, 10 min; buffer printed only for the single-RNA assays: 10 mM Tris pH 7.5, 150 mM NaCl, 3.4 mM EDTA, 0.001% NP-40, 30 C
# Details: tags: His6 N-terminal (pET28a); label: 5' 32P
# Outline: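 Purified wild-type or mutant RbFox RRM at increasing concentrations was equilibrated with 1 nM of 5′-radiolabelled RNA carrying 7 randomized nucleotides for 10 min in 50 µL. Unbound RNA was separated by 8% native PAGE and sequenced. Relative association constants came from read-count changes of each RNA species compared with the control reaction, normalised to the cognate motif.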
row,Binder,binding signal
1,B1,0.156 KA relative to UGCAUGU
2,B2,0.104 KA relative to UGCAUGU
3,B3,0.0994 KA relative to UGCAUGU
4,B4,0.0817 KA relative to UGCAUGU
5,B5,0.0922 KA relative to UGCAUGU
6,B6,0.119 KA relative to UGCAUGU
7,B7,0.0941 KA relative to UGCAUGU
8,B8,0.0871 KA relative to UGCAUGU
9,B9,0.165 KA relative to UGCAUGU
10,B10,0.0572 KA relative to UGCAUGU
11,B11,0.134 KA relative to UGCAUGU
12,B12,0.101 KA relative to UGCAUGU
13,B13,0.0709 KA relative to UGCAUGU
14,B14,0.0869 KA relative to UGCAUGU
15,B15,0.12 KA relative to UGCAUGU
16,B16,0.0967 KA relative to UGCAUGU

row,Binder,binding signal
1,B17,0.0664 KA relative to UGCAUGU
2,B18,0.0904 KA relative to UGCAUGU
3,B19,0.0679 KA relative to UGCAUGU
4,B20,0.0718 KA relative to UGCAUGU
5,B21,0.174 KA relative to UGCAUGU
6,B22,0.0764 KA relative to UGCAUGU
7,B23,0.0778 KA relative to UGCAUGU
8,B24,0.0749 KA relative to UGCAUGU
9,B25,0.0979 KA relative to UGCAUGU
10,B26,0.0623 KA relative to UGCAUGU
11,B27,0.089 KA relative to UGCAUGU
12,B28,0.132 KA relative to UGCAUGU
13,B29,0.157 KA relative to UGCAUGU
14,B30,0.0708 KA relative to UGCAUGU
15,B31,0.29 KA relative to UGCAUGU
